{"source": "PubChem BioAssay AID1745845", "about": "(National Center for Advancing Translational Sciences (NCATS), 2022)", "note": "“And” between values parts separate entries of the source, which are not always exact repeats. Equal values may be shown once. The campaign covered roughly 360,000 compounds. About 2,600 (0.72%) were called active. This list was built around the results that the source calls inconclusive (neither active nor inactive); the mix of calls is not that of the screen. The call rests on the fitted dose curve; in most records, active means well fitted inhibition curve with a large enough effect; inconclusive means small, poorly fitted or top-dose-only effect; inactive means no such curve, though single readings can be large or run the other way. Where the call is inconclusive, the potency comes from a doubtful curve fit. On the % scale 0 is the no-effect control and ±100 the full control effect; potency means the concentration at half of the fitted maximal effect; tags describe the fitted curve by direction and shape."}
{"assay": "Primary qHTS for Inhibitors of ATXN expression; further: nearly all actives have a fitted effect of over 55% in size", "conditions": "HEK-293 ATXN2-luciferase reporter, luminescence, 24 h; activity change, negative = inhibition: at 57 µM (top of the series)", "summary_of_the_method": "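ATXN2-luciferase reporter cells (luciferase flanked by upstream and downstream ATXN2 gene portions) were treated 24 h at 37 °C with compounds at up to 57 uM. SteadyGlo luminescence gave expression; GF-AFC fluorescence gave viability.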"}
{"smiles": "CC(C)(C)CNC(=O)C1(C)CCN1C(=O)Cc1ccc(C(C)(C)C)cc1", "note": "(stereo not given)", "Potency": "inconclusive: 31.6 µM [inhibitor, partial curve, poor fit]"}
{"smiles": "COc1ccc(-c2cc([C@H]3[C@@H]4C=CCC[C@@]4(C)C(=O)N3Cc3ccccc3)ccc2F)cc1OC", "Potency": "inconclusive: 39.8 µM [inhibitor, single point]"}
{"smiles": "CCOc1ccccc1NC(=O)C(=O)N/N=C/c1cc(Br)ccc1O", "Potency": "inconclusive: 3.16 µM [inhibitor, full curve]"}
{"smiles": "CC1CCCN(c2ccc3nc4ccccc4c(=O)n3n2)C1", "note": "(stereo not given)", "Potency": "inconclusive: 16.8 µM [inhibitor, single point]"}
{"smiles": "Cc1ccc(C)c(NC(=O)Cn2c(-c3nonc3N)nc3ccccc32)c1", "Potency": "inconclusive: 5.01 µM [inhibitor, full curve, poor fit]"}
{"smiles": "COc1cc([C@@H]2c3cc4c(cc3[C@H](O)[C@H]3COC(=O)[C@@H]23)OCO4)cc(OC)c1OC", "Potency": "inconclusive: 0.153 µM [inhibitor, full curve, poor fit]"}
{"smiles": "CC1CCCCN1C(=O)CSc1nnc(-c2ccccc2O)o1", "note": "(stereo not given)", "activity change, negative = inhibition": "inactive: 77.4%"}
{"smiles": "CN(C)c1ccc(/C=N/NC(=S)NCc2ccccc2)cc1", "activity change, negative = inhibition": "inactive: 39.2%"}
{"smiles": "COc1ccc(C(C(=O)NCc2ccccc2)N(C(=O)c2snc(C(N)=O)c2N)c2ccccc2OC)cc1", "note": "(stereo not given)", "Potency": "inconclusive: 3.55 µM [inhibitor, full curve, poor fit]"}
{"smiles": "COc1ccc(-c2csc(NC(C)c3nc4cc(Cl)c(Cl)cc4n3CCCO)n2)cc1", "note": "(stereo not given)", "Potency": "inconclusive: 39.8 µM [inhibitor, single point]"}
{"smiles": "C/C(=N\\NC(=O)c1ccccc1F)c1ccccn1", "Potency": "active: 3.98 µM"}
{"smiles": "CCN(C(=O)CN1C(=O)NC(c2ccccc2)(c2ccc(C)c(C)c2)C1=O)C1CCCCC1", "note": "(stereo not given)", "Potency": "inconclusive: 25.1 µM [inhibitor, single point]"}
{"smiles": "CN(Cc1nc2ccccc2c(=O)[nH]1)C(=O)COc1ccccc1Cc1ccccc1", "Potency": "inconclusive: 39.8 µM [inhibitor, single point]"}
{"smiles": "CC(C)C(N)c1csc(NC(=O)Nc2cccc(C(F)(F)F)c2)n1", "note": "(stereo not given)", "Potency": "inconclusive: 25.1 µM [inhibitor, single point]"}
{"smiles": "NC(=O)c1ccsc1NC(=O)c1ccc(S(=O)(=O)N2CCCc3ccccc32)cc1", "Potency": "inconclusive: 39.8 µM [inhibitor, single point]"}
{"smiles": "COc1ccc(NC(=O)CCN2C(=O)/C(=C/c3ccc4c(c3)OCO4)SC2=S)cc1", "Potency": "inconclusive: 3.55 µM [inhibitor, partial curve, poor fit]"}
{"smiles": "N#CCc1nc2ccccc2c(=O)[nH]1", "Potency": "inconclusive: 39.8 µM [inhibitor, single point]"}
{"smiles": "CCOC(=O)/C(=C\\c1ccc(OC(F)F)cc1)C1=Nn2c(nnc2-c2ccc(Cl)cc2)SC1", "Potency": "inconclusive: 4.47 µM [inhibitor, partial curve, poor fit]"}
{"smiles": "CCOC(=O)c1c(CCl)nc2ccccc2c1-c1ccccc1", "Potency": "inconclusive: 39.8 µM [inhibitor, single point]"}
{"smiles": "COc1ccc(/C=C/C(=O)Oc2ccc(/C=N/NC(=O)c3ccccc3)cc2)cc1OC", "Potency": "inconclusive: 39.8 µM [inhibitor, partial curve, poor fit]"}
{"smiles": "Cc1ccc(N(Cc2ccccc2)C(=O)c2cc(S(=O)(=O)N3CCOCC3)ccc2Cl)cc1", "Potency": "inconclusive: 20 µM [inhibitor, single point]"}
{"smiles": "CS(=O)(=O)c1ccc(-c2cn3ccccc3n2)cc1", "activity change, negative = inhibition": "inactive: 22.6%"}
{"smiles": "CCCCCCCCCCCCOCCOCCOCCOCCOCCOCCOCCOCCOCCO", "Potency": "inconclusive: 31.6 µM [inhibitor, partial curve]"}
{"smiles": "Cc1ccc(/C=N/NC(=O)Cc2c[nH]c3ccccc23)c(C)c1", "activity change, negative = inhibition": "inactive: -29.7%"}
{"smiles": "COc1ccc(CC(N)c2csc(NC(=O)Nc3ccccc3Cc3ccccc3)n2)cc1", "note": "(stereo not given)", "Potency": "inconclusive: 39.8 µM [inhibitor, single point]"}
{"smiles": "CCN1CCN(c2ccc(S(=O)(=O)N3CCCCC3)cc2NC(=O)COc2ccc(F)cc2Cl)CC1", "Potency": "inconclusive: 22.4 µM [inhibitor, single point]"}
{"smiles": "Cc1ccc(C)c2sc(N3CCN(C(=O)c4ccco4)CC3)nc12", "Potency": "inconclusive: 31.6 µM [inhibitor, single point]"}
{"smiles": "COc1ccccc1-c1cc(C(F)(F)F)nc(S(=O)(=O)CCCC(=O)NC(C)C)n1", "Potency": "inconclusive: 39.8 µM [inhibitor, single point]"}
{"smiles": "CCOc1ccc(/C=N/Nc2nc(C)cs2)c(O)c1", "activity change, negative = inhibition": "inactive: 255%"}
{"smiles": "Cc1cc(N=Cc2c(O)n(-c3ccc4c(c3)OCO4)c(=O)c3ccccc23)ccn1", "Potency": "inconclusive: 31.6 µM [inhibitor, single point]"}
{"smiles": "Nc1c(Cl)cc(C2=NCCn3c2c2ccc([N+](=O)[O-])cc2[n+]3[O-])cc1Cl", "Potency": "inconclusive: 12.6 µM [inhibitor, partial curve]"}
{"smiles": "CCN(CC)CC(C)(C)C(=O)/C=C/c1ccc(/C=C/C(=O)C(C)(C)CN(CC)CC)cc1", "Potency": "active: 3.98 µM"}
{"smiles": "CSc1nnc(NC(=O)c2nc(S(=O)(=O)Cc3ccc(C)cc3)ncc2Cl)s1", "Potency": "inconclusive: 2.82 µM [inhibitor, full curve, poor fit]"}
{"smiles": "CC(C)=CCC/C(C)=C/Cc1c(O)ccc(C(=O)/C=C/c2ccc(O)cc2)c1O", "Potency": "inconclusive: 39.8 µM [inhibitor, single point]"}
{"smiles": "CC1=C(C(=O)N(C(C)C)C(C)C)CC(CC(=O)NC(c2ccccc2)c2ccccc2)C(=O)N1Cc1ccc(C(C)(C)C)cc1", "note": "(stereo not given)", "Potency": "inconclusive: 39.8 µM [inhibitor, single point]"}
{"smiles": "CCC(=O)OCCNc1cc(Sc2nc3ccccc3[nH]2)c2nonc2c1[N+](=O)[O-]", "Potency": "active: 28.2 µM"}
{"smiles": "CCOc1ccc(/C=C2\\SC(=S)NC2=O)cc1OC", "activity change, negative = inhibition": "inactive: 25.5%"}
{"smiles": "Cc1ccc(NC(=O)CSc2nc3c([nH]c4ccccc43)c(=O)n2C)cc1", "Potency": "inconclusive: 17.8 µM [inhibitor, partial curve]"}
{"smiles": "Cc1c(C(=O)NN2CCCCC2)nn(-c2ccc(Cl)cc2Cl)c1-c1ccc(Cl)cc1", "Potency": "inconclusive: 39.8 µM [inhibitor, single point] and inconclusive: 43.2 µM [inhibitor, single point]"}
{"smiles": "O=C(c1cc(COc2ccc(F)cc2F)on1)N1CCCC(c2ccccc2)C1", "note": "(stereo not given)", "activity change, negative = inhibition": "inactive: 11.9%"}
{"smiles": "COc1ccc(C(=O)On2c(-c3ccc(Br)cc3)nc3ccccc3c2=O)cc1", "Potency": "inconclusive: 35.5 µM [inhibitor, single point]"}
{"smiles": "O=C(COc1ccc(Cl)cc1)Nc1nc(-c2ccc(S(=O)(=O)N3CCOCC3)cc2)cs1", "Potency": "inconclusive: 11.2 µM [inhibitor, partial curve, poor fit]"}
{"smiles": "O=C(c1cccs1)N1CCN(Cc2ccccc2[N+](=O)[O-])CC1", "activity change, negative = inhibition": "inactive: -2.03%"}
{"smiles": "CS(=O)(=O)N1CCCC(c2nc(-c3ccc(S(=O)(=O)NCc4ccccc4)cc3)no2)C1", "note": "(stereo not given)", "Potency": "inconclusive: 20 µM [inhibitor, partial curve, poor fit]"}
{"smiles": "COc1cccc(NC(=O)c2nnn(Cc3cccc(C(F)(F)F)c3)c2N)c1", "Potency": "inconclusive: 0.631 µM [inhibitor, partial curve, poor fit]"}
{"smiles": "Cc1cccc(CNc2ncnc3ccc(-c4ccc5c(c4)OCCO5)cc23)c1", "Potency": "inconclusive: 15.8 µM [inhibitor, partial curve, poor fit]"}
{"smiles": "CCOCCCn1c(=S)[nH]c2ncccc2c1=O", "Potency": "inconclusive: 39.8 µM [inhibitor, partial curve, poor fit]"}
{"smiles": "CC1CCCCN1S(=O)(=O)c1ccc(C(=O)Nc2nnc(-c3ccco3)o2)cc1", "note": "(stereo not given)", "Potency": "inconclusive: 25.1 µM [inhibitor, single point]"}
{"smiles": "O=C(Nc1ccc(N2CCCCC2)c(Cl)c1)c1ccc(N2CCOCC2)c([N+](=O)[O-])c1", "Potency": "inconclusive: 39.8 µM [inhibitor, single point]"}
{"smiles": "CN(C(=O)c1cccc(NC(=O)Cc2ccc(NC(=O)C3CCCN(C(=O)CCc4ccccc4)C3)cc2)c1)C1CCCCC1", "note": "(stereo not given)", "Potency": "inconclusive: 28.2 µM [inhibitor, single point]"}
{"smiles": "O=[N+]([O-])c1ccc(Sc2cccc3cccnc23)c([N+](=O)[O-])c1", "Potency": "inconclusive: 3.98 µM [inhibitor, single point]"}
{"smiles": "CNS(=O)(=O)c1ccc(C)cc1", "Potency": "inconclusive: 35.5 µM [inhibitor, single point]"}
{"smiles": "COc1ccccc1NC(=O)Nc1nc(CC(=O)NCc2c(F)cccc2F)cs1", "activity change, negative = inhibition": "inactive: 9.91%"}
{"smiles": "Cc1ccc(C)c(C(C)NC(=S)NC2CCCCC2)c1", "note": "(stereo not given)", "Potency": "inconclusive: 5.62 µM [inhibitor, partial curve]"}
{"smiles": "COc1ccc(C(=O)c2sc(Nc3ccccc3)nc2N)cc1OC", "Potency": "inconclusive: 26.7 µM [inhibitor, partial curve, poor fit]"}
{"smiles": "CCOC(=O)C1CCCN(C(=O)CN2C(=O)/C(=C/c3ccc(OC)cc3)Oc3ccccc32)C1", "note": "(stereo not given)", "Potency": "inconclusive: 42.3 µM [inhibitor, partial curve, poor fit]"}
{"smiles": "COc1ccc(CCNC(=O)C/C(C)=N/NC(=O)COc2ccc(C)cc2Br)cc1OC", "activity change, negative = inhibition": "inactive: -23.2%"}
{"smiles": "COC(=O)c1cc(O)cc(OC)c1Oc1cc(C)cc(O)c1C(=O)O", "Potency": "inconclusive: 20 µM [inhibitor, partial curve, poor fit]"}
{"smiles": "Cc1oc(-c2ccccc2Cl)nc1CS(=O)(=O)CC(=O)NC(C)CCc1ccccc1", "note": "(stereo not given)", "Potency": "inconclusive: 39.8 µM [inhibitor, single point]"}
{"smiles": "Cc1ccc(NC(=O)C2CCC(CNc3c(N4CCC(C)CC4)c(=O)c3=O)CC2)cc1F", "note": "(stereo not given)", "Potency": "inconclusive: 0.891 µM [inhibitor, full curve, poor fit]"}
